From the CheMixHub ionic liquid set
Where “and” joins values, the source holds several entries; their conditions need not be identical. Equal entries are not always repeated. ± gives the uncertainty stated by the source. Further values from the same series stand in other lists.

Experiment: xn = mol fraction of the nth substance listed
Settings: 101.3 kPa

CCCC[n+]1ccn(C)c1.[Cl-] + O
viscosity
Settings	x1 = 0.003602	x1 = 0.003604	x1 = 0.003614	x1 = 0.003623	x1 = 0.00538	x1 = 0.005432	x1 = 0.00552	x1 = 0.005593
298.15 K	–	0.961 ± 0.026 mPa·s	0.963 ± 0.026 mPa·s	0.974 ± 0.026 mPa·s	1.011 ± 0.027 mPa·s	1.015 ± 0.029 mPa·s	1.005 ± 0.027 mPa·s	1.001 ± 0.028 mPa·s and 1.01 ± 0.027 mPa·s
308.15 K	0.785 ± 0.021 mPa·s	0.772 ± 0.021 mPa·s	0.773 ± 0.021 mPa·s	0.783 ± 0.021 mPa·s	0.807 ± 0.022 mPa·s	0.816 ± 0.023 mPa·s	0.801 ± 0.022 mPa·s	0.807 ± 0.022 mPa·s
310.15 K	0.754 ± 0.02 mPa·s	0.742 ± 0.02 mPa·s	0.742 ± 0.02 mPa·s	0.755 ± 0.02 mPa·s	0.775 ± 0.022 mPa·s	0.787 ± 0.021 mPa·s	0.77 ± 0.021 mPa·s	0.773 ± 0.022 mPa·s
318.15 K	0.643 ± 0.017 mPa·s	0.638 ± 0.017 mPa·s and 0.639 ± 0.017 mPa·s	0.638 ± 0.017 mPa·s	0.65 ± 0.017 mPa·s	0.666 ± 0.018 mPa·s	0.676 ± 0.02 mPa·s	0.661 ± 0.018 mPa·s	0.664 ± 0.019 mPa·s
